Results taken from article PMC12698188.
Results are given in words; binding and its absence hold for the method and conditions named. For some assays here: Binding seen in cells or lysates may run through a third protein. Some entries that bind do so weakly or less than the wild type. For some assays here: Where a sequence is shown, tags or fusion partners need not be part of it.

Amino acid sequences for entries named in this document (tags omitted). A change or cut given only in a name is not applied to a line headed by its entry.
UniProt Q969H0: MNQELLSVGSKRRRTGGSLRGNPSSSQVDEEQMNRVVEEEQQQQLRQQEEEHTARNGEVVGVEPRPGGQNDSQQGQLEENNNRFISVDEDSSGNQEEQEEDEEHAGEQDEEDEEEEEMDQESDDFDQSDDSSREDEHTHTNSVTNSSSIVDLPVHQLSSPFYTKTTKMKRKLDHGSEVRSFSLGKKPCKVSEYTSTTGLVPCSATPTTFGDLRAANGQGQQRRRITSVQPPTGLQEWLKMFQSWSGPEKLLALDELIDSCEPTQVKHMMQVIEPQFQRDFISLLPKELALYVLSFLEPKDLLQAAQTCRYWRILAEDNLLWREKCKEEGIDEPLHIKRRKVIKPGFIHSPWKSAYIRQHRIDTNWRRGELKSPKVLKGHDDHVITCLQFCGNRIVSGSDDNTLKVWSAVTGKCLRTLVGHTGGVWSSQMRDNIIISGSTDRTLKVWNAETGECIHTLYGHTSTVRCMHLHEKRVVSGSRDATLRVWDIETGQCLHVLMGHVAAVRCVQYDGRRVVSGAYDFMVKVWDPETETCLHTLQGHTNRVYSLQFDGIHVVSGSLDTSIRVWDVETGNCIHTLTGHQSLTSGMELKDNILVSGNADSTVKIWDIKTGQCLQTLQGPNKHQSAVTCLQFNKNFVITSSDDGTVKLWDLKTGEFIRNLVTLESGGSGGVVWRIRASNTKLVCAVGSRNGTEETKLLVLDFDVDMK
UniProt P01106: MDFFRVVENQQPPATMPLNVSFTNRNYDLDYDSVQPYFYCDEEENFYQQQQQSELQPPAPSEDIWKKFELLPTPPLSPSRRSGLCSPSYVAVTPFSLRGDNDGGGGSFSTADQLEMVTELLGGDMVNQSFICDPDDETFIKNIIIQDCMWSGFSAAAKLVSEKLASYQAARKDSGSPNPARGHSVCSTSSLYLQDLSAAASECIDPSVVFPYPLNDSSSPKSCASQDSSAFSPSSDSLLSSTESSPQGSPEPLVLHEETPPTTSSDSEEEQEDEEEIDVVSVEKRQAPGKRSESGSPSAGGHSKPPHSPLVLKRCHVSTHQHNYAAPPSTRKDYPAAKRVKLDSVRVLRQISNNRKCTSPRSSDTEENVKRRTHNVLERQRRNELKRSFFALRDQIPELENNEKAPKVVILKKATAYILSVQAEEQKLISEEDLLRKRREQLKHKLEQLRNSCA

What was measured:
[1] = target: FBW7 wild type, ectopically expressed (recombinant FBW7) (human) (UniProt Q969H0); assay: pull-down; in vitro: Flag- and HA-tagged proteins purified from transfected HCT116+/+ cells by immunoprecipitation; HA-tagged protein eluted with HA peptide and put on Flag beads; immunoblot; both purified
[2] = target: T1, glutaminyl tRNA synthetase (QARS), Flag-tagged (human) (UniProt P47897); assay: co-IP; ectopic co-expression in HCT116+/+ cells; lysis buffer 50 mmol/L Tris-HCl pH 7.5, 150 mmol/L NaCl, 0.5% Nonidet P-40; antibody-conjugated beads, 4°C, 4 h; immunoblot
T1 sequence: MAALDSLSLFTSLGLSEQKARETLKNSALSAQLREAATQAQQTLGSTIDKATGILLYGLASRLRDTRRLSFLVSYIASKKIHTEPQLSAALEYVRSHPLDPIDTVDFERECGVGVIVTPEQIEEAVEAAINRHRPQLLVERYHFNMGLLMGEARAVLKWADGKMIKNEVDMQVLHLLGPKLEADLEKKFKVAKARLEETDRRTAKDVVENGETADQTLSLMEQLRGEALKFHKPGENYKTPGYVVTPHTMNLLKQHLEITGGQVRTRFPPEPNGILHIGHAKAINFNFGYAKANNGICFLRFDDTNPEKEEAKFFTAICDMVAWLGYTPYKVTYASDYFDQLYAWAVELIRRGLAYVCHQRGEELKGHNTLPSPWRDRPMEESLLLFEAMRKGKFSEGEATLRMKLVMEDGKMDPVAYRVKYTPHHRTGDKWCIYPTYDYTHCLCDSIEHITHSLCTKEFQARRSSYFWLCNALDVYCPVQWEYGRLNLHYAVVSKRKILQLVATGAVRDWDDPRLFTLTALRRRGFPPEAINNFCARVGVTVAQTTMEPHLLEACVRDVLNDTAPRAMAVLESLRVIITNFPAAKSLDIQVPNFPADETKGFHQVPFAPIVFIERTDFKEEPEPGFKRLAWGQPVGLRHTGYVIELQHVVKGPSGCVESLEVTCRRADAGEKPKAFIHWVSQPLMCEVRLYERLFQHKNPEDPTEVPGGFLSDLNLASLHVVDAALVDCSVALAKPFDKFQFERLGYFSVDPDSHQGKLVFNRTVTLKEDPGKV

[3] = target: T1, glutaminyl tRNA synthetase (QARS), Flag-tagged (human); assay: co-IP; co-immunoprecipitation of QARS and FBW7 (Fig. 2B); whether ectopic or endogenous proteins were used is not told
[4] = target: FBW7 K604R, knock-in in the HCT116+/+ genome (K604R-KI cells) (human (endogenous in HCT116)) (UniProt Q969H0); assay: co-IP; lysates of HCT116+/+, K604Q-KI and K604R-KI cells; increasing glutamine doses, 0 or 4 mmol/L glutamine, with or without QARS overexpression; immunoblot
[5] = target: F-box and WD repeat domain-containing 7 (FBW7), in HCT116+/+ cells (human (endogenous in HCT116)) (UniProt Q969H0); assay: as above

With “c-Myc, ectopically expressed, tagged (from UniProt P01106 1-454)” the binding [1] was “binds” and the binding [2] was “no binding”.

With “FBW7 wild type, ectopically expressed (recombinant FBW7) (from UniProt Q969H0 1-707)” the binding [3] was “binds”.

For “c-Myc in the co-immunoprecipitations with FBW7 from HCT116+/+ and knock-in cells (from UniProt P01106 1-454)”, the binding [4] was “binds” and the binding [5] was “binds”.
